{
  "source": "patent US5994336A",
  "about": "“Method of inhibiting proliferation of cells by administering an aminosterol compound” (priority 1995, dated 1999)",
  "assay": "Hematological profile of L1210-inoculated mice",
  "data": [
    {"smiles": "CC(C)[C@@H](CC[C@@H](C)[C@H]1CC[C@H]2[C@@H]3[C@H](O)C[C@H]4C[C@@H](NCCCNCCCCNCCCN)CC[C@]4(C)[C@H]3CC[C@]12C)OS(=O)(=O)O", "note": "[Compound 1436]", "values": [
      {"measurement": "hematological profile", "value": "near normal hematocrit, with evidence of a robust granulocyte count"}
    ]}
  ]
}
